The record followed here is paper PMC10726135.

The other results are listed elsewhere or left out. At the low end of the ranking the order means little. The protein was read in a cell extract, so binding may be indirect.

This assay concerns the target T1, HNF4alpha8 (COS-7 nuclear extract) (UniProt P41235-5).
T1 sequence: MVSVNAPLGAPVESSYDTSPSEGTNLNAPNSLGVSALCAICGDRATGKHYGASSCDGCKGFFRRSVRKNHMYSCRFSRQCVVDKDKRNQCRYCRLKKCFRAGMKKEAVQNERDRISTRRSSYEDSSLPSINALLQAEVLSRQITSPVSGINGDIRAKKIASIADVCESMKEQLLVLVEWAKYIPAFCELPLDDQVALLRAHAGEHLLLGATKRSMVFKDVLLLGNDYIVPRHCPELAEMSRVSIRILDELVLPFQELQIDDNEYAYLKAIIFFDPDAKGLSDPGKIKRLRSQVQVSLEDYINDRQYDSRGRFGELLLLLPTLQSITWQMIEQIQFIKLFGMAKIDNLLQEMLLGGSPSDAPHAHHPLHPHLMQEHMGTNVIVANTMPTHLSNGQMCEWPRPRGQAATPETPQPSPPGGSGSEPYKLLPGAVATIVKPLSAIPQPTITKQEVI
The assay can be described thus: protein-binding microarray. Conditions: COS-7 nuclear extract on double-stranded Agilent 4x180k PBM; binding buffer, salt, pH and temperature not given; high values mean tight binding; double strand, one strand shown; sequences stand for … in …GCCTAGGGAGATTAGAGTATCGGTCGA
ATAACTTCAAGGAGCTCGGCGCCAGGAAGC: the binding signal (log2 normalized intensity) is -1.28.
Turning to GGATAATGGAGAAGATAAGCAGATCTTTAG, the binding signal (log2 normalized intensity) was -1.43.
Regarding GTGTGACCAAGGACAAACTGAGGAGGACAT, the binding signal (log2 normalized intensity) was -1.24.
For the sequence CTGGTTCTGCAAGGCAACTGACCTTTGGAT, the binding signal (log2 normalized intensity) amounted to 8.71.
Consider CTGTCCCTACTCAATTATCACCACACAGCA, for which the binding signal (log2 normalized intensity) was -1.27.
For TGCAAGGGAGACCAGGAAAGTGAATATCTG, the binding signal (log2 normalized intensity) was -1.35.
As for AACCCATTTGTTAGTCTCTGGGCCTCCCCA, the binding signal (log2 normalized intensity) amounted to 1.62.
As for GTTTGCAGGGACAATGGATGGAACGTGGAC, the figure is 1.19; as for TGACGTCATTGGAAATCCGAAATAAACTGA, -1.27.
Regarding GAGGAGAGAGTAAATAATTGATGAAACAGG, the binding signal (log2 normalized intensity) is -1.14.
Take AAGAGCCAAAATGTGTTAGGCAAGCAAACT: the binding signal (log2 normalized intensity) was -1.25.
Take CATTGAGTCCACTGAGATCACTTGGGGTAA: the binding signal (log2 normalized intensity) worked out at 0.837.
For the sequence ATCCACTCAGTATGGCAACCTTTGTCCTGC, the binding signal (log2 normalized intensity) came to 5.46.
Take AACATGTAATTGCATGACCAAGTTGTATCA: the binding signal (log2 normalized intensity) stood at 1.26.
TGCCCAACCTTTGCCCCTGGAGGGAGACAT: the binding signal (log2 normalized intensity) is 4.02.
Regarding TAACTTCCGGCTGGCCTTCCCTCCTCCCTC, the binding signal (log2 normalized intensity) turned out to be 2.13.
Take GACAACATCTGGTGTGGTTAATGATTATGC: the binding signal (log2 normalized intensity) worked out at 0.968.
As for CGTGGAAAGTGGAAGAATGGGAAATTCCAT, the figure is -1.38.
As for CATCATCTTGTAATCTGCTTCCAGTTCCAT, the figure is 0.387; as for TTTTGTTCAATATGCTGAAGTCCAACTGCT, 2.07; as for AGCTCCAAAAGGTGGACAAGACTGGTTTTT, 0.215.
With GAAAGTACACAGTGCCTGCTTGCAGATAAA, the binding signal (log2 normalized intensity) was -1.42.
As to ATTCCCCTTTGTCTAAGCTAGTCATAGCTG, the binding signal (log2 normalized intensity) was -0.154.
TTTGAACACCTCTTCTTTCTTCTCTGGTAC: the binding signal (log2 normalized intensity) worked out at 1.8.
Consider GCTTCTGTACCTTTGACTATGGGCATGAAG, for which the binding signal (log2 normalized intensity) was 1.24.
Next, GTCTAGGTTCTGGGGTGATTACCCTTATCT: 1.61.
Consider CCTACCAGTATGCAATGTTAGTCTGGGAAA, for which the binding signal (log2 normalized intensity) was -0.0207.
As to CAATAAGCAATACATTGAACTTTGAACACC, the binding signal (log2 normalized intensity) amounted to 7.99.
In the case of GAATTCAAAGGTGCAAAGGTTAAAATGCCC, the binding signal (log2 normalized intensity) came to 4.97.
Turning to GTAAACCCCAATCAGGTTTCTCAAGTGATC, the binding signal (log2 normalized intensity) is 1.52.
GCAGAGGCTGGAGCAGGCCATGTGCAGAGG: the binding signal (log2 normalized intensity) was -1.34.
As to AGGAGGAGAAGGGTGGGAATTGGGATAGCA, the binding signal (log2 normalized intensity) was -1.3.
For the sequence ACCTGTGTGTGTAGGCATAGGAGAAACACA, the binding signal (log2 normalized intensity) was 0.101.
In the case of AAGGTATGGAGCTAAACAATTAAAGAACTC, the binding signal (log2 normalized intensity) was -1.32.
As to AATGCGCCTGAACTGACTGCATTCCCTTTC, the binding signal (log2 normalized intensity) is -1.05.
As to CTGAAATAGGTAAGCTGGCCCGGGAAGAAG, the binding signal (log2 normalized intensity) is -0.605.
Next, ACAAACCAGCTTTGAGATGATAAAAATTTG: -1.26.
On to ATGATACGCCGGCCAATCCGGCTGGCAGCC, for which the binding signal (log2 normalized intensity) is -1.41.
Turning to AGAACACGGAGTCCTTCTGGGGCTAGGTTT, the binding signal (log2 normalized intensity) is 0.403.
As to TCCAGATTAGAGCACAATGTGGGGAGCACA, the binding signal (log2 normalized intensity) is -0.575.
GATTAATTACCCACAGGTGTGTTGACTCAA: the binding signal (log2 normalized intensity) came out at 0.511.
GTTCTATGGGATGACCTTTGAGCAATAGGA: the binding signal (log2 normalized intensity) amounted to 6.05.
As to AAAATGAAAGCAAGGGCCAGATCAAAGGCT, the binding signal (log2 normalized intensity) is -1.37.
Consider TGCTGACTTTCTGTGTCTTGGCAGTGATCA, for which the binding signal (log2 normalized intensity) was 1.88.
Regarding TCACGAAAGGCAACATCTTGAGCCAGGAAT, the binding signal (log2 normalized intensity) was -1.34.
On to ACGGAGAATGTAGACCTTTACCACCCTCAC, for which the binding signal (log2 normalized intensity) stood at 1.14.
Regarding ATTTCTCAGGAAGTGCTTGTTCCCTCCATC, the binding signal (log2 normalized intensity) was found to be 0.377.
With AGTGCAAGGGAGAAATTGCGCTAACCAGAT, the binding signal (log2 normalized intensity) was -1.29.
On to ACATCTCTCTCTGCAGCTGAGTAGAGGAAA, for which the binding signal (log2 normalized intensity) is -1.01.
CCTAGCAACCTCCACATTGCAACAATGTCC: the binding signal (log2 normalized intensity) is -0.718.
On to CAGATAACAGCGAACATGAGGAATAAACTT, for which the binding signal (log2 normalized intensity) was -1.43.
As to GCTGAAAACTATGCATGCTGTGTGTGTGTG, the binding signal (log2 normalized intensity) was determined as 2.21.
As to TTGACCCCTTGGCCCCGCTGTCCTGATCCC, the binding signal (log2 normalized intensity) stood at 4.66.
Next, CTCTGCACACACAGACATAAACACAGACAC: -1.3; GGCCCATTTTCCCATGGTCTGTAGAAGGCG: 0.0788; CTCTTCCCAACTTGGCCTCAATGTTTACAC: 0.841.
For the sequence GCTCTGGTTCAAACAAGGCCAAAGTCTGGC, the binding signal (log2 normalized intensity) was determined as 2.66.
Regarding TATCTGACTGATGCTAAAGTCTACATTCTA, the binding signal (log2 normalized intensity) stood at 1.25.
For TTGTAGCCTCATTTCACCTTTGGTCTTTGG, the binding signal (log2 normalized intensity) was determined as 5.52.
Turning to TTCTGATAAGAGCATTTTTGTATGCATAAG, the binding signal (log2 normalized intensity) was found to be 0.847.
Next, GCGCGCTGGGAAGGCTCGTTCTCGCGAGAG: -1.27; CAGTAGGTCAGTGTCCCTCTTATACTCTCT: 0.12.
As for ATGGGAAGCTTCACAAAGGGCTGAGGTTAA, the figure is -1.06.
As for CTCATCCTGTGACCAAGAATGCCTAACCTC, the figure is -1.38; as for ATTAAGCTGAGGCAGAGTTGTTTGCAGAGG, 0.266; as for TCTGTACGGAAGGCCGGGCCTCAAGGGAAT, -1.32.
Regarding CATTGCAAAATCCATCTAAATGGCAATGGC, the binding signal (log2 normalized intensity) was -1.28.
As to AAGGGACAAAACTTCAAAGCCCCTGAGGCC, the binding signal (log2 normalized intensity) was -1.19.
As to TTTTTCATGCAAATTTCCGTGTCGAAACTA, the binding signal (log2 normalized intensity) was -0.73.
As for GAAAAGAGGAAAACCAGCTCAGTGGAAATT, the figure is -1.42.
For GTGGCCATCTTCACGCAATACTAGCAATAA, the binding signal (log2 normalized intensity) is -1.25.
As to GCCAGATGAAGCTGCAGCCTTAAGAGAGTT, the binding signal (log2 normalized intensity) was -1.38.
